This is one part of the list. Rule as the data show it: active = 3.2 or more and inactive = the rest. Most of these values are background signal.
What was measured:
Assay in all cases: enrichment score (SH2-bound / input frequency) (ratio); bacterial display of known human phosphotyrosine sites (pTyr-Var adds point mutants) read by sequencing; higher = stronger binding; tyrosines were phosphorylated by kinases first
Conditions in all cases: peptide library: Human pTyr
[1] = target: SHP2 C-SH2 domain E139D
[2] = target: SHP2 C-SH2 domain wild-type
[3] = target: SHP2 N-SH2 domain L43F
[4] = target: SHP2 N-SH2 domain T42A
[5] = target: SHP2 N-SH2 domain T52S
[6] = target: SHP2 N-SH2 domain wild-type

Measured: enrichment score
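Also: displayed peptides selected on beads carrying the immobilized SH2 domain, with library peptides lacking any tyrosine serving as negative controls.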

B1: ICP22_HHV2H_189 (peptide)
chain: AWTLDLHYIRQCVNQ
inactive: [1] 1.74 | [2] 1.27 | [3] 1.48 | [4] 1.68 | [5] 2.13 | [6] 1.92

B2: LMP2_EBVA8_112 (peptide)
chain: DDSSQHIYEEAGRGS
inactive: [1] 0.721 | [2] 0.491 | [3] 0.815 | [4] 0.663 | [5] 0.551 | [6] 0.494

B3: A36_VAR67_112 (peptide)
chain: APSTEHIYDSVAGST
inactive: [1] 0.581 | [2] 0.529 | [3] 0.667 | [4] 0.459 | [5] 0.558 | [6] 0.595

B4: A36_VAR67_132 (peptide)
chain: DCNEQTIYQNTTVIN
inactive: [1] 1.04 | [2] 0.897 | [3] 0.854 | [4] 0.878 | [5] 0.978 | [6] 1.05

B5: POL_HV190_132 (peptide)
chain: DNKVSQNYPIVQNAQ
inactive: [1] 0.777 | [2] 0.649 | [3] 0.813 | [4] 0.625 | [5] 0.914 | [6] 0.744

B6: POL_HV192_130 (peptide)
chain: KGKVSQNYPIVQNLQ
inactive: [1] 1.16 | [2] 1.07 | [3] 1.01 | [4] 0.89 | [5] 1.02 | [6] 1.25

B7: POL_HV193_128 (peptide)
chain: EKGVSQNYPIVQNLQ
inactive: [1] 0.704 | [2] 0.599 | [3] 0.767 | [4] 0.618 | [5] 0.804 | [6] 0.585

B8: POL_HV19N_131 (peptide)
chain: SNPVSQNYPIVQNAQ
inactive: [1] 0.832 | [2] 0.646 | [3] 0.771 | [4] 0.67 | [5] 0.716 | [6] 0.758

B9: POL_HV1AN_130 (peptide)
chain: ARQAGQNYPIVSNAQ
inactive: [1] 0.53 | [2] 0.75 | [3] 0.433 | [4] 0.81 | [5] 0.675 | [6] 0.543

B10: POL_HV1H2_132 (peptide)
chain: SNQVSQNYPIVQNIQ
inactive: [1] 0.637 | [2] 0.624 | [3] 0.744 | [4] 0.654 | [5] 0.783 | [6] 0.641

B11: POL_HV1J3_132 (peptide)
chain: SSKVSQNYPIVQNIQ
inactive: [1] 0.941 | [2] 0.745 | [3] 0.716 | [4] 0.794 | [5] 0.988 | [6] 1.02

B12: POL_HV1LW_132 (peptide)
chain: SSQVSQNYPIVQNIQ
inactive: [1] 0.757 | [2] 0.607 | [3] 0.715 | [4] 0.738 | [5] 0.797 | [6] 0.636

B13: POL_HV1M2_132 (peptide)
chain: SKGVSQNYPILQNLQ
inactive: [1] 0.753 | [2] 0.518 | [3] 0.585 | [4] 0.505 | [5] 0.573 | [6] 0.697

B14: POL_HV1MA_138 (peptide)
chain: SSSVSQNYPIVQNAQ
inactive: [1] 0.609 | [2] 0.611 | [3] 0.728 | [4] 0.675 | [5] 0.604 | [6] 0.624

B15: POL_HV1MN_135 (peptide)
chain: SSQVSQNYPIVQNIE
inactive: [1] 0.738 | [2] 0.613 | [3] 0.627 | [4] 0.575 | [5] 0.668 | [6] 0.613

B16: POL_HV1MP_128 (peptide)
chain: DKEVSQNYPIVQNIQ
inactive: [1] 0.578 | [2] 0.739 | [3] 0.612 | [4] 0.607 | [5] 0.744 | [6] 0.802

B17: POL_HV1RH_132 (peptide)
chain: GSQVSQNYPIVQNLQ
inactive: [1] 0.671 | [2] 0.644 | [3] 0.696 | [4] 0.614 | [5] 0.645 | [6] 0.708

B18: POL_HV1SE_132 (peptide)
chain: SNQVSQNYPIVQNAQ
inactive: [1] 0.743 | [2] 0.619 | [3] 0.766 | [4] 0.759 | [5] 0.756 | [6] 0.604

Source: the supplement of paper PMC10369915
